Laboratory results as given in the RNAGym collection of RNA variant scans (doi:10.1073/pnas.2313332121).
This sample is rich in variants without activity.

B1: TPR 5TU (parent)
chain: GGAUCUUCUCGAUCUAACAAAAAAGACAAAUCUGCCACAAAGCUUGAGAGCAUCUUCGGAUGCAGAGGCGGCAGCCUUCGGUGGCGCGAUAGCGCCAACGUUCUCAACUAUGACACGCAAAACGCGUGCUCCGUUGAAUGGAGUUUAUCAUG

Variants of: B1
Test: polymerase ribozyme fitness, log enrichment relative to wild type (log ratio); higher = more active; in vitro selection for triplet polymerase activity
How it was run: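 Each subunit of a heterodimeric triplet polymerase ribozyme was represented by a PCR-built, transcribed mutant library that underwent triplicate single-round in vitro selection with frozen incubation at −7 °C. Extended constructs were recovered by gel excision, streptavidin-bead capture and RT-PCR, and Illumina sequencing of input and output libraries kept genotypes with ≥10 input reads and ≥1 read per output. Fitness is the logarithm of genotype enrichment relative to wild-type enrichment, from inverse-variance-weighted replicate averages, with a logarithm base of 2.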

Question: For GGAUCUUCUCGAUCUAACAAAAAAGACAAGUCUGCCACAAAGCUUGAAAGCAUUUUCGGAUGCAGAGGCGGCAGCCUUCGGUGGUGCGAUAGCGCCAACGUUCUCAACUAUGACACGCAAAACGCGUGCUCCGUUGAAUGGAGUUUAUCAUG, which “polymerase ribozyme fitness (log ratio)” value is on record?
Answer: ≤ -4.2

Question: With GGAUCUUCUCGAUCUAACAAAAAAGACAAGUCUGCCACAAAUCUUGAGAGCAUCUUCGGAUGCAGAGGCGGCAGCCUUCGGUGGCGCGAUAGCGCUAACGUUCUCAACUAUGACACGGAAAACGCGUGCGCCGUUGAAUGGAGUUUAUCAUG as the variant, how does the “polymerase ribozyme fitness (log ratio)” value read?
Answer: ≤ -4.2

Question: For GGAUCUUCUCGAUCUAACAAAAAAGACAAGUCUGCCACAAAGCUUGAGAGCAUCUUCAGAUGCAGAGGCGGCAGCCUUCGGUGGCGCGAUAGCGCCAUCGUUCUCAACUAUGACACGCAAAACGCGUGCUCCGUCGAAUGGAGUUUAUCAUG, which “polymerase ribozyme fitness (log ratio)” value is on record?
Answer: ≤ -4.2

Question: For GGAUCUUCUCGAUCUAACAAAAAAGACAAGUCUGCCACAAAGCUUGAGAGGAUCUUCGGAUGCAGAGGCGGCAGCCUUCGGUGGCGCGAUAGCGGCUACGUUCUCAACUAUGACACGCAAAACGCGUACUCCGUUGAAUGGAGUUUAUCAUG, which “polymerase ribozyme fitness (log ratio)” value is on record?
Answer: ≤ -4.2

Question: For GGAUCUUCUCGAUCUAACAAAAAAGACAAGUCUGCCACAAAGCUUGAGAGCAUCUUCGGAUGCAGAGGCGGCAGCCUUCGGUGGCGCGAUAGCGUCAACAUUCUCAACUAUGACACGCAAAACGCGUGCUCCGUUGAAUGGAGUUUAUCAUG, which “polymerase ribozyme fitness (log ratio)” value is on record?
Answer: ≤ -4.2

Question: With GGAUCUUCUCGAUCUAACAAAAAAGACAAGUCUGCCACAAAGCUUGAGAGCAUCUUCGGAUGCAGAGGCGGCAGCCUUCGGUGGCGCGAUAGCGCCAACGUUCUCAACUAUGACAUGCAAAACGCGUGCUCCGUUGAAUGGAGUUUACCAUG as the variant, how does the “polymerase ribozyme fitness (log ratio)” value read?
Answer: ≤ -4.2

Question: For GGAUCUUCUCGAUCUAACAAAAAAGACAAGUCUGCCACAAAGCUUGAGAGCAUCUUCGGAUGCAGAGGCGGCAGACUUCGGUGGCGCGAUAGCUCCAACGUUCUCAACUAUGACACGCAAAACGCGUGCUCCGUUGCAUGGAUUUUAUCUUG, which “polymerase ribozyme fitness (log ratio)” value is on record?
Answer: ≤ -4.2

Question: For GGAUCUUCUCGAUCUAACAAAAAAGACAAGUCUGCCACAAAGCUUGAGAGCAUCUUAGGAUGCAGAGGCGGCAGCCUUCGGUGGCGCGAUAGCGCCAACGUUCUCAACUAUGACACGCAAAACGCGUGCUCCGUUGAAUGGAGUUUAUCAUG, which “polymerase ribozyme fitness (log ratio)” value is on record?
Answer: -2.9

Question: With GGAUCUUCUCGAUCUAACAAAAAAGACAAGUCUGCCAAAAAGCUUGAGAGCAUCUUCGGAUGCAGAGGCGGCAGCCAUCGGUGACACGAUAGCGCCAACGUUCUCAAAUAUGACACGCAAAACGCGUGCUCCGUUGAAUGGAAUUUAUCAUG as the variant, how does the “polymerase ribozyme fitness (log ratio)” value read?
Answer: ≤ -4.2

Question: Which “polymerase ribozyme fitness (log ratio)” value does the source give for GGAUCUUCUCGAUCUAACAAAAAAGACAAGUCUGCCACAAAGCUUGAGACCAUCUUCGGAUGCAGAGGCGUCAGCCUUCGGAGUCGCGAUAGCGCCAACGUUCUCAACUAUAACACGCAAAAGGCGUGCUCCGUUGAAUGGAGUUUAUCAUG here?
Answer: ≤ -4.2

Question: Which “polymerase ribozyme fitness (log ratio)” value does the source give for GGAUCUUCUCGAUCUAACAAAAAAGACAAGUCUGCCACAAAGCUUGGGCGCAUCUUCGGAUGCAGAGGCGGCAGCCUUCGGUGGCGCGAUAGCGCCAACGUGCUCAACUAUGACACGCAAAAAGCGUGCUCCGUUCAAUGGAGUUUAUCAUG here?
Answer: ≤ -4.2

Question: Which “polymerase ribozyme fitness (log ratio)” value does the source give for GGAUCUUCUCGAUCUAACAAAAAAGACAAGUCUGCCACAAAGCUUGAGAGCAUCUUCGGAUGCAGAGGCGGCAGCUUUCGGUGGCGCGAUAGCGCCAACGUUCUCAACUAUGACACGCAAAACGCGUGCUCCGUUGAAUGGAGUUUAUCAUG here?
Answer: -3.9

Question: Which “polymerase ribozyme fitness (log ratio)” value does the source give for GGAUCUUCUCGAUCUAACAAAAAAGACAAGUCUGCCACAAAGCUUGAGAGCAUCUUCGGAUGCAGAGGCAGCAGCCUUCGGUGGCGCGAUAGCGCCAACGUUCUUAACUAUGACCCGCAAAACGCGUGCUCCGUUGAAUGGAGUUUAACAUG here?
Answer: ≤ -4.2

Question: Which “polymerase ribozyme fitness (log ratio)” value does the source give for GGAUCUUCUCGAUCUAACAAAAAAGACAAGUCUGUCACAAAGCUUGAGAGCAUCUGCGGAUGCAGGGGCGGCAGCCUUCGGGGGCGCGAUAGCGCCAAUGUUCUCAACUAUGACACGCUAAACGCAUGCUCCGUUGAAUGGCGUUUAUCAUG here?
Answer: ≤ -4.2

Question: With GGAUCUUCUCGAUCUAACAAAAAAGACAAGUCUGCCACAAAGCUUGAGAGCAUCUUCUGAUGCAGAGGCGGCAGCCUUCGGUGGCGCGAUAGCGCCAACGUUCUCAACUAUGACACGUAAAACGCGUGCUCCGUUGAAUGGAGUUUAUCAUG as the variant, how does the “polymerase ribozyme fitness (log ratio)” value read?
Answer: -3.95

Question: Which “polymerase ribozyme fitness (log ratio)” value does the source give for GGAUCUUCUCGAUCUAACAAAAAAGACAAGUCUGCCACAAAGCUUGAGAGCAUCUUCGGAUGCAGAGGCGGCAGCCUUCGGUGGCGCGAUAGCGCCAACGUUCUCAAUAAUGACACGCAAAACGCGUGCUCCGUUGAAUGGAGUUUAUCAUG here?
Answer: ≤ -4.2

Question: With GGAUCUUCUCGAUCUAACAAAAAAGACAAGUCUGCCACAAAGAUUGAGAGCAUCUUCGGAUGCAGAGGCGGCAGCCUUCGGUAGCGCGAUAGCGCGAACGUUCUCAACUAUGACACGCAAAACGCGUGCUCCGUUGAAUGGAGUUUAUCAUG as the variant, how does the “polymerase ribozyme fitness (log ratio)” value read?
Answer: ≤ -4.2

Question: With GGAUCUUCUCGAUCUAACAAAAAAGACAAGUCUGCCACAAAGCUUGAGAGCAUCUUCGGAUGCAGAGGCGGCUGCCUUCGGUGGCGCGAUAGCGGCAACGUUCUCAACUAUGACACGCAAAACGCGUGCUCCGUUCAAUGGAGUUUAUCAUG as the variant, how does the “polymerase ribozyme fitness (log ratio)” value read?
Answer: ≤ -4.2

Question: With GGAUCUUCUCGAUCUAACAAAAAAGACAAGUCUGCCACAAAGCUUGAGAGCAUCUUCGGCUGCAGAGGCGGCAGCCUUCGGUGGCGCGAUAGUGCCAACGUGCUCAACUAUGACACGCAAAACGCGUUCUCCGUUGAAUGGAGUUUAUCAUG as the variant, how does the “polymerase ribozyme fitness (log ratio)” value read?
Answer: ≤ -4.2
